Data taken from PubChem BioAssay AID504832 (National Center for Advancing Translational Sciences (NCATS), 2011).
Screen size: about 310,000 compounds; about 18,000 (5.8%) were called active. The shares of active, inactive and inconclusive entries below differ from those in the screen. Calls follow the shape of the dose curve; as a rule, active = well fitted inhibition curve with a large enough effect; inconclusive = small, poorly fitted or top-dose-only effect, or another doubt; inactive = no such curve, though single readings can be large or run the other way. No potency is given beside an inconclusive call; the fits are too rough.

Experiment: Primary qHTS for delayed death inhibitors of the malarial parasite plastid, 48 hour incubation
Settings: P. falciparum luciferase growth in erythrocytes; series mostly up to 28.7 µM; activity change, negative = inhibition: at the top concentration
Summary of the method: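 Growth was read as firefly luciferase luminescence after a 48 h, 37 C, 5% CO2 exposure of compounds to reporter-bearing P. falciparum cultures (0.1% parasitemia, 2% hematocrit final) in Albumax-supplemented RPMI 1640.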
% is scaled to controls: 0 for no effect and ±100 for the full control effect; potency is read from the fitted curve at half-maximal effect; tags tell the direction and shape of the fitted curve.

Q: For `CCOc1cccc(C2C(C#N)=C(N)Oc3cc(C)oc(=O)c32)c1OCC` (stereo not given), which Potency is on record?
A: The Potency was inconclusive [inhibitor, single point].

Q: With `Cc1c(C#N)c(N)nc2c3c(sc12)NC(=O)CC3c1ccc(Cl)cc1` (stereo not given) as the molecule, how does the Potency read?
A: The Potency was inconclusive [inhibitor, single point].

Q: Which Potency does the source give for `Oc1c(Cl)cc(CN2CCOCC2)c2cccnc12` here?
A: Its Potency is active: 4.65 µM.

Q: For `CC(=O)N1CCN(c2ccc(NC(=O)c3cc(Cl)ccc3Cl)cc2)CC1`, which “activity change, negative = inhibition” value is on record?
A: Its value is inactive: -4.5%.

Q: Which Potency does the source give for `Cc1ccc2oc(C(=O)N(Cc3ccc(N(C)C)cc3)C3CCS(=O)(=O)C3)c(C)c2c1` (stereo not given) here?
A: Its Potency is inconclusive [inhibitor, single point].

Q: For `O=C(CSc1nc2ncccc2[nH]1)NC1CCCC1`, which “activity change, negative = inhibition” value is on record?
A: The value was inactive: 1.19%.

Q: With `Brc1c(-c2ccc3c(c2)OCO3)nc2ncccn12` as the molecule, how does the “activity change, negative = inhibition” value read?
A: The value was inactive: 67.4%.

Q: Which Potency does the source give for `COc1ccc(CCNC(=O)CNCC2CCCCC2)cc1OC` here?
A: The Potency was inconclusive [inhibitor, partial curve, poor fit].

Q: With `C/C(=N/NC(=O)c1ccc(Cn2cccn2)o1)c1cccc(NC(=O)c2ccncc2)c1` as the molecule, how does the “activity change, negative = inhibition” value read?
A: The value was inactive: -25.4%.

Q: For `CCOc1ccc(-c2nc3n(c(=O)c2C#N)CCS3)cc1`, which Potency is on record?
A: Its Potency is inconclusive [inhibitor, full curve, poor fit].

Q: With `CC1CCC2(CC1)NC(=O)N(CC(=O)NC1(C#N)CCCCC1)C2=O` (stereo not given) as the molecule, how does the Potency read?
A: The Potency was inconclusive [inhibitor, single point].

Q: For `Cc1ccc(NC(=O)C2=C(C(=O)O)CCCC2)cc1Br`, which “activity change, negative = inhibition” value is on record?
A: The value was inactive: -22.9%.

Q: For `CCN(CC)C(=O)CSc1nc2sc3c(c2c(=O)n1CCCOC)CCC3`, which Potency is on record?
A: Its Potency is inconclusive [inhibitor, partial curve].

Q: With `Cc1c(C(=O)O)sc2nc(/C=C/c3cccc(F)c3)[nH]c(=O)c12` as the molecule, how does the “activity change, negative = inhibition” value read?
A: The value was inactive: 3.72%.

Q: For `CCOC(=O)c1ccc(N2CCOCC2)c(NC(=O)c2ccc3c(c2)OCO3)c1`, which Potency is on record?
A: The Potency was inconclusive [inhibitor, single point].

Q: With `NC(=O)SCC(=O)Nc1cccc(Cl)c1` as the molecule, how does the Potency read?
A: The Potency was inconclusive [inhibitor, single point].

Q: Which Potency does the source give for `Oc1c(Br)cc(Br)cc1CNc1cccc2cccnc12` here?
A: The Potency was inconclusive [inhibitor, partial curve, poor fit].

Q: With `Cc1ccc(N/C=C(/C#N)c2ccsc2)cc1C` as the molecule, how does the “activity change, negative = inhibition” value read?
A: The value was inactive: 150%.

Q: With `O=C(c1cn2ccccc2n1)N1CCCC(Nc2ccc(F)c(F)c2)C1` (stereo not given) as the molecule, how does the Potency read?
A: Its Potency is inconclusive [inhibitor, partial curve].

Q: Which Potency does the source give for `Cc1ccc(-c2nnn(CC(=O)Nc3ccccc3-c3ccccc3)n2)c(-n2cnnn2)c1` here?
A: Its Potency is inconclusive [inhibitor, single point].

Q: Which “activity change, negative = inhibition” value does the source give for `CCOC(=O)C1=C(COC(=O)C2CC(=O)N(c3ccccc3F)C2)NC(=O)NC1C` (stereo not given) here?
A: Its value is inactive: -21.4%.

Q: With `C/C(CC1CC(COCC(C)C)OC1=O)=N\Nc1nc(-c2ccccc2)cs1` (stereo not given) as the molecule, how does the Potency read?
A: The Potency was inconclusive [inhibitor, single point].

Q: Which Potency does the source give for `O=C(N/N=C/c1cnc(N2CCCCC2)s1)c1ccc(Cl)cc1` here?
A: Its Potency is inconclusive [inhibitor, single point].

Q: Which Potency does the source give for `COc1ccc(/C=C(/C#N)c2cccnc2)cc1OC` here?
A: The Potency was inconclusive [inhibitor, partial curve, poor fit].

Q: For `Cn1c(=O)n(Cc2ccco2)c(=N)c2c3c(sc21)CCC3`, which “activity change, negative = inhibition” value is on record?
A: Its value is inactive: 14.3%.

Q: For `Cc1nc(NCCC(C)C)c2nnn(Cc3ccccc3)c2n1`, which “activity change, negative = inhibition” value is on record?
A: The value was inactive: 0.238%.

Q: Which Potency does the source give for `COc1ccc(CSc2nc3ccccc3c(=O)n2CCCN2CCOCC2)cc1F` here?
A: Its Potency is inconclusive [inhibitor, single point].

Q: For `FC(F)(F)c1cnc(NNC(=S)Nc2ccccc2Cl)c(Cl)c1`, which Potency is on record?
A: Its Potency is inconclusive [inhibitor, single point].

Q: Which “activity change, negative = inhibition” value does the source give for `COCc1c(C(=O)OCC(=O)NCCN2C(=O)CSC2=O)oc2ccccc12` here?
A: The value was inactive: 8.41%.

Q: With `Cn1c(N)c(C(=O)CSc2n[nH]c(N)n2)c(=O)n(C)c1=O` as the molecule, how does the “activity change, negative = inhibition” value read?
A: Its value is inactive: 37.7%.

Q: Which “activity change, negative = inhibition” value does the source give for `CN(CCOc1ccccc1)C(=O)c1ccc(N2CCCC2)c([N+](=O)[O-])c1` here?
A: The value was inactive: 10.6%.

Q: Which “activity change, negative = inhibition” value does the source give for `O=c1cc(-c2cccs2)oc2ccc(Cl)cc12` here?
A: Its value is inactive: 149%.

Q: Which Potency does the source give for `C=CCN1C=C/C(=C\C=C(C#N)C#N)c2ccccc21` here?
A: Its Potency is inconclusive [inhibitor, single point].

Q: For `Cc1cccc(N2CCN(C(=O)NC(C)c3ccc(F)c(F)c3)CC2)c1C` (stereo not given), which Potency is on record?
A: The Potency was active: 11.7 µM.

Q: For `Cc1ccc(S(=O)(=O)NCCN2CCN(S(=O)(=O)c3ccccc3Cl)CC2)cc1`, which Potency is on record?
A: Its Potency is inconclusive [inhibitor, single point].

Q: With `Clc1ccc2c(c1)C(c1cccs1)=NNC(c1cccnc1)=N2` as the molecule, how does the “activity change, negative = inhibition” value read?
A: Its value is inactive: -7.2%.

Q: Which Potency does the source give for `CC(C)c1cc(C(=O)N2CCCC(N3CCN(c4ccc(F)cc4)CC3)C2)n(C)n1` (stereo not given) here?
A: Its Potency is inconclusive [inhibitor, single point].

Q: Which Potency does the source give for `O=C1C(Cl)=C(N2CCOCC2)C(=O)N1c1cccc(Cl)c1` here?
A: The Potency was inconclusive [inhibitor, single point].

Q: For `CCOc1ccc(-c2csc(N)c2C(=O)OC)cc1`, which Potency is on record?
A: Its Potency is inconclusive [inhibitor, single point].

Q: Which Potency does the source give for `CCOc1cc(C2NCc3ccccc3-n3cccc32)ccc1O` (stereo not given) here?
A: Its Potency is active: 2.62 µM.

Q: Which “activity change, negative = inhibition” value does the source give for `O=C(CCNS(=O)(=O)c1cccc2nsnc12)NCCC1=CCCCC1` here?
A: Its value is inactive: -9.68%.

Q: Which Potency does the source give for `CC(NC(=O)CN(C)CC(=O)Nc1ccc(Cl)c(C(F)(F)F)c1)c1ccccc1` (stereo not given) here?
A: The Potency was inconclusive [inhibitor, single point].

Q: Which “activity change, negative = inhibition” value does the source give for `CCC(=NC(C)c1ccccc1)c1c(O)n(C)c(=O)n(C)c1=O` (stereo not given) here?
A: Its value is inactive: -11.3%.

Q: Which “activity change, negative = inhibition” value does the source give for `Cc1cc(C(=O)N/N=C/c2ccccn2)n[nH]1` here?
A: The value was inactive: 32.3%.

Q: With `COc1ccc(CNC(=O)C(=O)NCCC2CCCCN2S(=O)(=O)c2ccccc2)cc1` (stereo not given) as the molecule, how does the Potency read?
A: The Potency was active: 11.7 µM.

Q: Which Potency does the source give for `CCOc1ccccc1C(=O)NC1CCN(CC(=O)Nc2cc(OC)ccc2OC)CC1` here?
A: Its Potency is inconclusive [inhibitor, partial curve, poor fit].

Q: Which “activity change, negative = inhibition” value does the source give for `CCC(C)[C@H](NC(=O)NCc1ccccc1Cl)C(=O)O` (stereo not given in full) here?
A: The value was inactive: 15.8%.

Q: Which “activity change, negative = inhibition” value does the source give for `CCOC(=O)C1(Cc2cccc(Cl)c2)CCCN(C(=O)CCC(=O)N(C)C)C1` (stereo not given) here?
A: Its value is inactive: 4.76%.

Q: With `Cc1sc(NC(=O)c2c(F)cccc2F)nc1-c1ccccc1` as the molecule, how does the “activity change, negative = inhibition” value read?
A: The value was inactive: 0.3%.

Q: For `COc1ccc(CC(=O)OCC(=O)c2c(N)n(C)c(=O)n(C)c2=O)cc1OC`, which Potency is on record?
A: Its Potency is inconclusive [inhibitor, single point].
